Experimental data published in PubChem BioAssay (Tox21).
Values joined by “and” are separate entries in the source; they are usually repeats but may differ in a detail not shown here. Equal values may be shown once. The inconclusive results got no clear call from the source; some entries with a clear call stand among them for comparison. Potencies beside an inconclusive call are fits to weak or partial responses and may not hold up. Active and inactive are the calls of the source. Calls come from the whole dose curve; as a rule, active = well fitted inhibition curve with a large enough effect in the repeat runs; inconclusive = weak or mixed curves; inactive = no such curve, though single readings can be large or run the other way.

molecular target: Cytochrome P450 1A2 (Homo sapiens) (UniProt P05177); experiment: Cytochrome P450 Family 1 Subfamily A Member 2 (CYP1A2) small molecule antagonists: luciferase reporter qHTS assay (AID 1671199); conditions: P450-Glo CYP1A2 enzyme, luciferin luminescence, 1 h; series mostly up to 115 µM; note: nearly all actives have a fitted effect of over 50% in size
How it was run: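 Read-out is luminescence from luciferin detection reagent (20 min) proportional to CYP1A2 activity; compounds in DMSO preincubated 10 min with enzyme and proluciferin substrate, then NADPH regeneration solution, 1 h, room temperature.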
Potency is the fitted concentration of half-maximal effect; tags give direction and shape of the fitted curve.

Chain of UniProt P05177 (P05177 whole entry, looked up): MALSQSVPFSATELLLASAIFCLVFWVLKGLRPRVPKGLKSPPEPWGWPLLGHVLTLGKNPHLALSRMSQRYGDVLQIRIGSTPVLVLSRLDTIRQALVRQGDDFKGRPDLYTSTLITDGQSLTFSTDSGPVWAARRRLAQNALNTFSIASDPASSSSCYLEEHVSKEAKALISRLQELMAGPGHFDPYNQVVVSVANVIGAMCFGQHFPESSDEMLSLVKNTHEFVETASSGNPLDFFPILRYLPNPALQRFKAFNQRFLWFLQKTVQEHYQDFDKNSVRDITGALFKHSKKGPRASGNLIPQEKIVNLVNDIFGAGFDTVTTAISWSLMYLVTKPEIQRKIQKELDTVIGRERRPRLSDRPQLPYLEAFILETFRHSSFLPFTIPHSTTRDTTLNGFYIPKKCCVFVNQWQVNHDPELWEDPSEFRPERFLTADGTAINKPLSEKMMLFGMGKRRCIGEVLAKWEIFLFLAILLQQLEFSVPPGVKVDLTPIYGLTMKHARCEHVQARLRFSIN

Row | Structure (SMILES) | Potency
1 | CNC(C)=O | inconclusive: 63.3 µM [inhibitor, partial curve, poor fit]
2 | CCC(OCCCOC)OC(C)=O (centres undefined) | active: 36.4 µM
3 | CC(C)CC(C)O (centres undefined) | inconclusive: 70.7 µM [inhibitor, partial curve, poor fit] and inconclusive: 71 µM [inhibitor, partial curve, poor fit]
4 | CCCCCCCC(=O)[O-].CCCCCCCC(=O)[O-].[Zn+2] | inconclusive: 27.5 µM [inhibitor, partial curve]
5 | Nc1c(Cl)cc(Cl)cc1Cl | active: 15.7 µM
6 | Cc1cc2c(OCC(CNC(C)(C)C)OC(=O)c3ccccc3)cccc2[nH]1 (centres undefined) | inactive
7 | COc1cc2[nH]c(=O)[nH]c(=O)c2cc1OC | inconclusive: 14.4 µM [inhibitor, partial curve]
8 | CCC1CO1 (centres undefined) | inconclusive: 61.3 µM [inhibitor, partial curve, poor fit]
9 | COC(=O)CS | inconclusive: 60.8 µM [inhibitor, partial curve]
10 | O=C(O)CCCCC(=O)O | inconclusive: 63.3 µM [inhibitor, partial curve, poor fit] and inconclusive: 27.5 µM [inhibitor, partial curve]
11 | Cc1cc(C)c(NC(=O)CN(CC(=O)O)CC(=O)O)c(C)c1Br | inactive
12 | CC(C)(C)c1ccc(C(=O)O)cc1 | inactive
13 | C=C(C)C(=O)OCC[N+](C)(C)C | active: 15.8 µM
14 | CCOC(=O)/C=C/C(=O)OCC | inconclusive: 63.3 µM [inhibitor, partial curve]
